Source: patent US20250360087A1, “COMPOSITIONS COMPRISING LIPID DROPLETS ENCAPSULATED WITHIN POLYSACCHARIDE WALLS AND USES THEREOF” (UNIVERSITY OF SOUTH AUSTRALIA, priority 2022, published 2025)

Tests used:
[1] = system: RAW 264.7 cells; assay: Particle uptake in macrophages, Nile red, flow cytometry; assay type: cell-based, Murine; settings: 50 μg/mL Nile red
Protocol: Freshly grown RAW 264.7 (˜7×10^4 cells per well), were plated in a 24-well plate and incubated for one day to promote cell adherence. After supernatant removal, the cells were exposed to either Nile red (50 μg/mL in DMEM) or Nile red loaded formulations at a final concentration equivalent to 50 μg/mL. Following 1 h and 4 h incubation, the cells were thoroughly rinsed (three times using sterile PBS) and collected from each well of plate. The cells were centrifuged at 600 g for 5 min and the subsequent cell pellets were resuspended in FACS buffer. The Nile red intensity inside cells was measured using Accuri C6 Plus flow-cytometer (BD Biosciences, Franklin Lakes, New Jersey, USA).

[2] = system: RAW 264.7 cells; assay: Rifampicin internalisation within macrophages (HPLC of lysed cells); assay type: cell-based, Murine; settings: 1 h incubation
Protocol: Following this, the cells were washed 4 times to ensure the removal of extracellular particles and lysed for 15 minutes with DMSO at 37° C., 5% CO2. The lysed cells were then collected in an Eppendorf tube and centrifuged for 5 min at 600 g. The intracellular rifampicin uptake was evaluated by analysing the supernatant using described HPLC method.

Compound | fluorescence intensity compared to control group (no treatment) [1] | rifampicin dose detected inside the macrophages [2]
CCN(CC)c1ccc2nc3c4ccccc4c(=O)cc-3oc2c1 [Nile red solution, Nile red] | did not exhibit any significant difference | –
CO[C@H]1/C=C/O[C@@]2(C)Oc3c(C)c(O)c4c(O)c(c(/C=N/N5CCN(C)CC5)c(O)c4c3C2=O)NC(=O)/C(C)=C\C=C\[C@H](C)[C@H](O)[C@@H](C)[C@@H](O)[C@@H](C)[C@H](OC(C)=O)[C@@H]1C [rifampicin] | – | 16.5±3.26%
